The values below come from paper PMC4939424.

Holding throughout (experiment): co-IP; GFP-PI3KAP/XB130 co-transfected with full-length or deletion mutants of FLAG-tagged PI3KAP/XB130 into HEK293T cells; lysates immunoprecipitated with anti-FLAG M2 agarose, immunoblotting
Background: In western blotting, separated proteins are transferred to a membrane and probed.

For experiment [1], the target named is T1, FLAG-tagged PI3KAP/XB130 deletion mutant, amino acid residues 1-675 (mouse) (UniProt Q5DTU0).
T1 sequence: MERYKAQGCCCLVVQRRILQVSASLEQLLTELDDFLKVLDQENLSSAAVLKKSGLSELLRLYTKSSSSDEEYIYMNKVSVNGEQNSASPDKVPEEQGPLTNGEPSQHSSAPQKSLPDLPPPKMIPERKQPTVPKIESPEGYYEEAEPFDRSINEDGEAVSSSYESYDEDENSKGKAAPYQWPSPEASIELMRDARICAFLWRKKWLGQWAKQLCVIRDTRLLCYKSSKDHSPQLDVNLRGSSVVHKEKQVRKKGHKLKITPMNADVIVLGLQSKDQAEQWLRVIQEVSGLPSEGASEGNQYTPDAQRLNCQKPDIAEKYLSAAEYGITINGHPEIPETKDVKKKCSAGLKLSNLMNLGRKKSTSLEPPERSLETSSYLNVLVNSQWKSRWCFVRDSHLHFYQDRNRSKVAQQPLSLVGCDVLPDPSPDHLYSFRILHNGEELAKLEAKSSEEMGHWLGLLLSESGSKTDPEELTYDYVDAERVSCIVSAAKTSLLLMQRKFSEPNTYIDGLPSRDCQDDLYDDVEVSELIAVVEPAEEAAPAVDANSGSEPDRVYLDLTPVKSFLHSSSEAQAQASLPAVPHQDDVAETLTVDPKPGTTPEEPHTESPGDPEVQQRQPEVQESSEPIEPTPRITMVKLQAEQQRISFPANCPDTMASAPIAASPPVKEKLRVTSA

Experiment [2] has as its target T2, FLAG-tagged PI3KAP/XB130 deletion mutant, amino acid residues 511-843 (mouse) (UniProt Q5DTU0).
T2 sequence: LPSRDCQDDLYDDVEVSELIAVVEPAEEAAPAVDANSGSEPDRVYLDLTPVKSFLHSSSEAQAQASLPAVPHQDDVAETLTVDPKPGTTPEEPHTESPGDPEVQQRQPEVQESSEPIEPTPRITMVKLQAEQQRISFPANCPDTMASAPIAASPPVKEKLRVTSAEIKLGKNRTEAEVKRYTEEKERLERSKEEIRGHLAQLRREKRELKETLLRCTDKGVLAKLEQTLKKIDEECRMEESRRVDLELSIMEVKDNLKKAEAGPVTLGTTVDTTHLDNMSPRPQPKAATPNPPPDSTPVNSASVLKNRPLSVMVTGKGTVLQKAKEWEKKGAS

Experiment [3] addresses T3, FLAG-tagged PI3KAP/XB130 deletion mutant, amino acid residues 654-843 (mouse) (UniProt Q5DTU0).
T3 sequence: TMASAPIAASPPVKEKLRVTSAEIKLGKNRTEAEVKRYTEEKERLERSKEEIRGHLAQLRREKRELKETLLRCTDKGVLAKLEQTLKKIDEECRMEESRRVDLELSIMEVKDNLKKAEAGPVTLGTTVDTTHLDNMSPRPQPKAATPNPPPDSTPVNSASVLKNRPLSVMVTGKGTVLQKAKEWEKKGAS

For experiment [4], the target named is T4, FLAG-tagged recombinant full-length PI3KAP/XB130 (mouse) (UniProt Q5DTU0).
T4 sequence: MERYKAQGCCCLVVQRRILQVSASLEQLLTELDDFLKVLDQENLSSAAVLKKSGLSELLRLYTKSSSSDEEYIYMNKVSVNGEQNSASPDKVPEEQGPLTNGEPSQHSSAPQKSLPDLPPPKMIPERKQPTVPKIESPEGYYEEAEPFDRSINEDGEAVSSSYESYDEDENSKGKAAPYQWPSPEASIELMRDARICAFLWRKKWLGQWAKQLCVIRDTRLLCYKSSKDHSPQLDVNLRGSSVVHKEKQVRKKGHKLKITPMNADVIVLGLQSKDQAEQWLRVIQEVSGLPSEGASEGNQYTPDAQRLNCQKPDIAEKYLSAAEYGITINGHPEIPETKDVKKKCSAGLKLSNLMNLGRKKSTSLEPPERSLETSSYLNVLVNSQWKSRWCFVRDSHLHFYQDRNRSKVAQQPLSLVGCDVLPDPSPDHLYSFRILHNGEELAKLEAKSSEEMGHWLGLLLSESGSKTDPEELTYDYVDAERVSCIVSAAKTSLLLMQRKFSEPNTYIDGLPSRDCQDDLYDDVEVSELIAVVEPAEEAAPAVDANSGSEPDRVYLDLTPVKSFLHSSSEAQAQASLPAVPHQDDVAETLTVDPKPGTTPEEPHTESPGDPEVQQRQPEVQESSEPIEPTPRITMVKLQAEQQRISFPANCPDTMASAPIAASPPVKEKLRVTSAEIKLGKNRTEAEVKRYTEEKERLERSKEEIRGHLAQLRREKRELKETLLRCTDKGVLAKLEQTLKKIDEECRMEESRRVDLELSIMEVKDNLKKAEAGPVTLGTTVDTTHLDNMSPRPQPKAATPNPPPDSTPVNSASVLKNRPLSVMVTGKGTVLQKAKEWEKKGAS

These are yes or no findings as the source states them, for the method shown. Binding seen in cells or lysates may run through a third protein. Some binding calls cover weakened binding; strength is not graded here. Tags and fused reporters may be left off the sequences shown.

B1: GFP-fused PI3KAP/XB130 (protein, UniProt Q5DTU0-2 1-843)
chain: T4 sequence
For the molecule B1, the binding result in experiment [1] is recorded as “binds”; in experiment [2], “no binding”; in experiment [3] it was “no binding”; in experiment [4], “binds”.
